Results from PubChem BioAssay (NCI).
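1) Cells in 96-well plates. 2) Compound, 48 h, 5 concentrations. 3) Linear interpolation between surrounding doses. 4) Unreached endpoint = highest concentration. GI50 marks 50% less growth. TGI denotes the concentration required for complete inhibition of growth.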

Test system: NCI-H322M lung
Assay: inhibition of tumour cell growth, NCI panel, 48 h

| Compound | GI50 | TGI |
| --- | --- | --- |
| NS(=O)(=O)c1cccc(Nc2nc(SCC(=O)c3ccc([N+](=O)[O-])cc3)nc3ccccc23)c1 | 49.9 µM | > 100 µM |
| C#C[C@]1(O)CC[C@H]2[C@@H]3CC=C4c5sc(-c6ccc7c(c6)OCO7)nc5CC[C@]4(C)[C@H]3CC[C@@]21C | 3.33 µM | 79 µM |
